# In the supplement of paper PMC8728848:
# This is one part of the list.
# B1: GNA (Galanthus nivalis), P30617 (protein)
# chain: MAKASLLILAAIFLGVITPSCLSDNILYSGETLSTGEFLNYGSFVFIMQEDCNLVLYDVDKPIWATNTGGLSRSCFLSMQTDGNLVVYNPSNKPIWASNTGGQNGNYVCILQKDRNVVIYGTDRWATGTHTGLVGIPASPPSEKYPTAGKIKLVTAK
# How the values were obtained:
# Experiment in all cases: glycan array binding signal (z-score within array); higher = stronger binding
# Settings in all cases: glycan notation: IUPAC condensed, linker removed
# [1] = molecular target: GalNAc(b1-3)Gal(a1-4)Gal(b1-4)GlcNAc(b1-3)Gal(b1-4)Glc
# How it was run: (§1)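 Columns mapping to the same glycan were averaged after glycan names were converted to IUPAC-condensed notation. The data come from 3228 arrays in the Consortium for Functional Glycomics database, limited to those with an available protein sequence. Binding is reported as a within-array Z-score averaged across arrays of one protein sequence and across linkers.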
# [2] = molecular target: GalNAc(b1-3)Gal(a1-6)Gal(b1-4)Glc
# How it was run: as §1
# GalNAc(b1-3)GalNAc = molecular target: GalNAc(b1-3)GalNAc
# How it was run: as §1
# GalNAc(b1-3)GlcNAc = molecular target: GalNAc(b1-3)GlcNAc
# How it was run: as §1
# GalNAc(b1-4)Gal(b1-4)Glc = molecular target: GalNAc(b1-4)Gal(b1-4)Glc
# How it was run: as §1
# GalNAc(b1-4)GlcNAc = molecular target: GalNAc(b1-4)GlcNAc
# How it was run: as §1
# [3] = molecular target: GalNAc(b1-4)GlcNAc(b1-2)Man
# How it was run: as §1
# [4] = molecular target: GalNAc(b1-4)GlcNAc(b1-2)Man(a1-3)[GalNAc(b1-4)GlcNAc(b1-2)Man(a1-6)]Man(b1-4)GlcNAc(b1-4)GlcNAc
# How it was run: as §1
# [5] = molecular target: GalNAc(b1-4)GlcNAc(b1-3)GalNAc(b1-4)GlcNAc
# How it was run: as §1
# GalNAc(b1-4)GlcNAc6S = molecular target: GalNAc(b1-4)GlcNAc6S
# How it was run: as §1
# GalNAc(b1-6)GalNAc = molecular target: GalNAc(b1-6)GalNAc
# How it was run: as §1
# GalNAc3S(b1-4)GlcNAc = molecular target: GalNAc3S(b1-4)GlcNAc
# How it was run: as §1
# GalNAc3S(b1-4)GlcNAc3S = molecular target: GalNAc3S(b1-4)GlcNAc3S
# How it was run: as §1
# [6] = molecular target: GalNAc3S(b1-4)[Fuc(a1-3)]GlcNAc
# How it was run: as §1
# GalNAc4S6S(b1-4)GlcNAc = molecular target: GalNAc4S6S(b1-4)GlcNAc
# How it was run: as §1
# GalNAc6S(b1-4)GlcNAc = molecular target: GalNAc6S(b1-4)GlcNAc
# How it was run: as §1
# Glc(a1-4)Glc = molecular target: Glc(a1-4)Glc
# How it was run: as §1
# [7] = molecular target: Glc(a1-4)Glc(a1-4)Glc(a1-4)Glc
# How it was run: as §1
# Glc(a1-6)Glc(a1-6)Glc = molecular target: Glc(a1-6)Glc(a1-6)Glc
# How it was run: as §1
# [8] = molecular target: Glc(a1-6)Glc(a1-6)Glc(a1-6)Glc
# How it was run: as §1
# Glc(b1-4)Glc = molecular target: Glc(b1-4)Glc
# How it was run: as §1
# Glc(b1-6)Glc = molecular target: Glc(b1-6)Glc
# How it was run: as §1
# GlcA(b1-3)Gal = molecular target: GlcA(b1-3)Gal
# How it was run: as §1
# GlcA(b1-3)GlcNAc = molecular target: GlcA(b1-3)GlcNAc
# How it was run: as §1
# GlcA(b1-6)Gal = molecular target: GlcA(b1-6)Gal
# How it was run: as §1
# [9] = molecular target: GlcA3S(b1-3)Gal(b1-4)GlcNAc(b1-2)Man
# How it was run: as §1
# [10] = molecular target: GlcA3S(b1-3)Gal(b1-4)GlcNAc(b1-3)Gal(b1-4)Glc
# How it was run: as §1
# [11] = molecular target: GlcNAc(a1-3)Gal(b1-4)GlcNAc
# How it was run: as §1
# [12] = molecular target: GlcNAc(a1-4)Gal(b1-3)GlcNAc
# How it was run: as §1
# [13] = molecular target: GlcNAc(a1-4)Gal(b1-4)GalNAc
# How it was run: as §1
# [14] = molecular target: GlcNAc(a1-4)Gal(b1-4)GlcNAc
# How it was run: as §1
# [15] = molecular target: GlcNAc(a1-4)Gal(b1-4)GlcNAc(b1-3)Gal(b1-4)Glc
# How it was run: as §1
# [16] = molecular target: GlcNAc(a1-4)Gal(b1-4)GlcNAc(b1-3)Gal(b1-4)GlcNAc
# How it was run: as §1
# [17] = molecular target: GlcNAc(a1-4)Gal(b1-4)GlcNAc(b1-3)Gal(b1-4)GlcNAc(b1-3)Gal(b1-4)GlcNAc
# How it was run: as §1
# [18] = molecular target: GlcNAc(a1-4)Gal(b1-4)GlcNAc(b1-3)Gal(b1-4)[Fuc(a1-3)]GlcNAc(b1-3)Gal(b1-4)[Fuc(a1-3)]GlcNAc
# How it was run: as §1
# [19] = molecular target: GlcNAc(a1-6)Gal(b1-4)GlcNAc
# How it was run: as §1
# [20] = molecular target: GlcNAc(b1-2)Gal(b1-3)GalNAc
# How it was run: as §1
# [21] = molecular target: GlcNAc(b1-2)Man(a1-3)[GlcNAc(b1-2)Man(a1-6)]Man(b1-4)GlcNAc(b1-4)GlcNAc
# How it was run: as §1
# [22] = molecular target: GlcNAc(b1-2)Man(a1-3)[GlcNAc(b1-2)Man(a1-6)]Man(b1-4)GlcNAc(b1-4)[Fuc(a1-6)]GlcNAc
# How it was run: as §1
# [23] = molecular target: GlcNAc(b1-2)Man(a1-3)[GlcNAc(b1-4)][GlcNAc(b1-2)Man(a1-6)]Man(b1-4)GlcNAc(b1-4)GlcNAc
# How it was run: as §1
# [24] = molecular target: GlcNAc(b1-2)Man(a1-3)[GlcNAc(b1-4)][GlcNAc(b1-2)Man(a1-6)]Man(b1-4)GlcNAc(b1-4)[Fuc(a1-6)]GlcNAc
# How it was run: as §1
# [25] = molecular target: GlcNAc(b1-2)[GlcNAc(b1-4)]Man(a1-3)[GlcNAc(b1-2)Man(a1-6)]Man(b1-4)GlcNAc(b1-4)GlcNAc
# How it was run: as §1
# [26] = molecular target: GlcNAc(b1-2)[GlcNAc(b1-4)]Man(a1-3)[GlcNAc(b1-4)][GlcNAc(b1-2)Man(a1-6)]Man(b1-4)GlcNAc(b1-4)GlcNAc
# How it was run: as §1
# [27] = molecular target: GlcNAc(b1-2)[GlcNAc(b1-4)]Man(a1-3)[GlcNAc(b1-4)][GlcNAc(b1-2)[GlcNAc(b1-6)]Man(a1-6)]Man(b1-4)GlcNAc(b1-4)GlcNAc
# How it was run: as §1
# [28] = molecular target: GlcNAc(b1-2)[GlcNAc(b1-4)]Man(a1-3)[GlcNAc(b1-4)][GlcNAc(b1-2)[GlcNAc(b1-6)]Man(a1-6)]Man(b1-4)GlcNAc(b1-4)[Fuc(a1-6)]GlcNAc
# How it was run: as §1
binder,measurement,setting,value
B1,glycan array binding signal (z-score),[1],-0.214
same,glycan array binding signal (z-score),[2],-0.142
same,glycan array binding signal (z-score),GalNAc(b1-3)GalNAc,-0.175
same,glycan array binding signal (z-score),GalNAc(b1-3)GlcNAc,-0.159
same,glycan array binding signal (z-score),GalNAc(b1-4)Gal(b1-4)Glc,-0.15
same,glycan array binding signal (z-score),GalNAc(b1-4)GlcNAc,-0.241
same,glycan array binding signal (z-score),[3],-0.169
same,glycan array binding signal (z-score),[4],0.048
same,glycan array binding signal (z-score),[5],-0.177
same,glycan array binding signal (z-score),GalNAc(b1-4)GlcNAc6S,-0.188
same,glycan array binding signal (z-score),GalNAc(b1-6)GalNAc,-0.166
same,glycan array binding signal (z-score),GalNAc3S(b1-4)GlcNAc,-0.178
same,glycan array binding signal (z-score),GalNAc3S(b1-4)GlcNAc3S,-0.172
same,glycan array binding signal (z-score),[6],-0.171
same,glycan array binding signal (z-score),GalNAc4S6S(b1-4)GlcNAc,-0.156
same,glycan array binding signal (z-score),GalNAc6S(b1-4)GlcNAc,-0.199
same,glycan array binding signal (z-score),Glc(a1-4)Glc,-0.148
same,glycan array binding signal (z-score),[7],-0.166
same,glycan array binding signal (z-score),Glc(a1-6)Glc(a1-6)Glc,-0.217
same,glycan array binding signal (z-score),[8],-0.155
same,glycan array binding signal (z-score),Glc(b1-4)Glc,-0.26
same,glycan array binding signal (z-score),Glc(b1-6)Glc,-0.237
same,glycan array binding signal (z-score),GlcA(b1-3)Gal,-0.157
same,glycan array binding signal (z-score),GlcA(b1-3)GlcNAc,-0.19
same,glycan array binding signal (z-score),GlcA(b1-6)Gal,-0.077
same,glycan array binding signal (z-score),[9],-0.182
same,glycan array binding signal (z-score),[10],-0.144
same,glycan array binding signal (z-score),[11],-0.288
same,glycan array binding signal (z-score),[12],-0.095
same,glycan array binding signal (z-score),[13],-0.139
same,glycan array binding signal (z-score),[14],-0.099
same,glycan array binding signal (z-score),[15],-0.149
same,glycan array binding signal (z-score),[16],-0.235
same,glycan array binding signal (z-score),[17],-0.123
same,glycan array binding signal (z-score),[18],-0.002
same,glycan array binding signal (z-score),[19],-0.193
same,glycan array binding signal (z-score),[20],-0.205
same,glycan array binding signal (z-score),[21],1.14
same,glycan array binding signal (z-score),[22],-0.06
same,glycan array binding signal (z-score),[23],-0.171
same,glycan array binding signal (z-score),[24],-0.164
same,glycan array binding signal (z-score),[25],0.353
same,glycan array binding signal (z-score),[26],-0.183
same,glycan array binding signal (z-score),[27],-0.159
same,glycan array binding signal (z-score),[28],-0.185
